# PubChem BioAssay AID743279 (National Center for Advancing Translational Sciences (NCATS), 2014)
# Hit rate of the full screen: of about 360,000 compounds, about 17,000 (4.7%) were called active. Inconclusive means that the source gave no clear call. Such entries were picked first, then a sample of the others. Rule as the data show it: active = activity change below about -50%; inconclusive = mostly about -30% to -49%; inactive = weaker than that.
# Experiment: qHTS for Inhibitors of Inflammasome Signaling: IL-1-beta AlphaLISA Primary Screen
# Details: THP-1 LPS/ATP IL-1B secretion, 16 h; at 57.5 µM, stronger effect = lower value
# Summary of the method: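 THP-1 cells pretreated 1 hr with compounds (up to 57.5 uM final), then stimulated with LPS (250 ng/mL final) plus ATP (1.25 mM final); secreted IL-1B measured by AlphaLISA after 16 hr, decreased signal indicating inhibition.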
# % is scaled to controls: 0 for no effect and ±100 for the full control effect.
row,Compound,activity change
1,COc1cccc(CSc2nnnn2-c2ccc(O)cc2)c1,inconclusive: -48.6%
2,CCOc1cccc(/C=N/Nc2ccc(S(=O)(=O)N(CC)CC)cn2)c1O,inactive: 51.6%
3,CCOC(=O)c1nc(N/N=C/c2ccccc2)sc1Br,inconclusive: -46.7%
4,COc1ccc(/C=C/C(=O)Nc2ccc3nc4n(c(=O)c3c2)CCCC4)cc1,inconclusive: -32.6%
5,CC1CCC(C(C)C)C(OCC(O)CN2CCN(Cc3ccccc3)CC2)C1 (stereo unspecified),inconclusive: -34.9%
6,CN1C(=O)/C(=C/c2ccccc2F)Sc2ccc(C(=O)NCC3CCCO3)cc21 (stereo unspecified),inconclusive: -47.2%
7,O=[N+]([O-])c1ccc(Sc2cc[n+]([O-])c3ccccc23)c([N+](=O)[O-])c1,active: -108%
8,CC(C)c1ccc(/C=C2\C(=O)N(CCN3CCOCC3)C(=S)N2C)cc1,active: -94.3%
9,COc1ccc(C2CC(c3ccccc3)n3nc(NC(=O)c4cccs4)nc3N2)cc1 (stereo unspecified),active: -72.2%
10,Cc1nn(-c2ccccc2)c(N)c1N=Nc1ccc(Cl)cc1,active: -76.1%
11,CN(C)CCCSc1nc(-c2ccccc2)nc2c1CCC2,active: -53.1%
12,Cc1ccccc1C(=O)NNC(=O)C(=O)N1CCCCC1,inactive: 24.5%
13,Cc1noc(C)c1NC(=O)Nc1cccc2c1O[C@@H](CN(C)Cc1ccc3c(c1)OCO3)[C@@H](C)CN([C@H](C)CO)C2=O,inconclusive: -39.5%
14,Oc1ccccc1N1CCN(c2ccc3ccccc3n2)CC1,inconclusive: -36.3%
15,Cn1c(N)c(C(=O)COC(=O)c2ccc3c(c2)C(=O)N(c2ccc(Cl)cc2)C3=O)c(=O)n(C)c1=O,inactive: -11.8%
16,O=C(NCCc1csc(-c2ccccc2)n1)c1ccco1,inconclusive: -47%
17,CCOc1ccc(NC(=O)CC(NCc2ccccn2)C(=O)O)cc1 (stereo unspecified),inactive: 32.1%
18,N#CC1=C(N)N2C(=C(C#N)C1c1ccc(Br)cc1)Nc1ccccc12 (stereo unspecified),inconclusive: -42.7%
19,Cc1ccc(C(C(=O)NC2CCCCC2)N(C(=O)CCCC(=O)Nc2ccccn2)c2ccc3c(c2)OCCO3)cc1 (stereo unspecified),inconclusive: -30%

row,Compound,activity change
1,Cc1cc(C)n(C(=O)c2ccc(Cn3nc(C)c(Br)c3C)o2)n1,inactive: -5.5%
2,Cc1ccc(S(=O)(=O)NCC(c2ccccc2)N2CCN(CCC#N)CC2)cc1 (stereo unspecified),inconclusive: -45.1%
3,CCN(CC(=O)Nc1ccc(OC)cc1)C(=O)c1ccc2[nH]c3c(c2c1)CC(C)CC3 (stereo unspecified),inconclusive: -43.3%
4,COc1cc(-c2coc3c(C(=O)NCc4ccc(C(F)(F)F)cc4)cccc23)ccc1O,inconclusive: -47%
5,CCCCOc1c(Br)cc(/C=N/O)cc1OCC,inconclusive: -43.6%
6,NC1=CC(=O)C(=O)c2cccnc21,active: -59.7%
7,CNC(=S)c1cc(C(C)(C)C)c(O)c(C(C)(C)C)c1,inactive: -1.52%
8,N#CC1=C(N)C(C#N)(C#N)C(c2cccnc2)C2CC(c3ccccc3)CC=C12 (stereo unspecified),inactive: 4.24%
9,COc1ccc(N2CCN(Cc3cc4c(cc3Br)OCCO4)CC2)cc1,active: -67.7%
10,Cc1c(CN2CCCC(C(=O)Nc3cccc(-n4cccn4)c3)C2)cnn1C (stereo unspecified),inactive: 0.934%
11,Cc1ccc(-c2cc(C(=O)NCCN3CCOCC3)no2)cc1,inconclusive: -41.3%
12,Cc1cccc(C(=O)Nc2nsc(N)n2)c1,inactive: 55.2%
13,CC(=O)c1ccc2cccc3c2c1N=CN3C,active: -59.2%
14,O=C(NNc1nc(=O)c2cccnc2s1)c1ccccc1O,inactive: 118%
15,O=C(c1ccc([N+](=O)[O-])o1)N1CCc2ccccc21,inconclusive: -34.4%
16,O=C(NNC(=O)c1cc(-c2ccc(Cl)c(Cl)c2)nc2ccccc12)Nc1ccccc1,inconclusive: -33.7%
17,CN(Cc1ccc(F)cc1)C(=O)c1ccc(NC(=O)CC2SC(N3CCCC3)=NC2=O)cc1 (stereo unspecified),inactive: 0.149%
18,Cc1ccc(C)c(OCCC(=O)Nc2cccc(S(=O)(=O)NC3=NCCCCC3)c2)c1,inconclusive: -35.5%
19,O=C(NCc1nnnn1-c1ccc(F)cc1)c1ccc2c(c1)OCO2,inactive: 0%

row,Compound,activity change
1,O=[N+]([O-])c1ccc(NC(=S)NCCc2ccccc2)cc1,active: -92.5%
2,CCOc1cc(/C=C2\N=C(SC(C)C(N)=O)N(c3ccc(OC(F)F)cc3)C2=O)ccc1O (stereo unspecified),inactive: -11.9%
3,COc1ccc(-c2cnc(N)nc2-c2ccc(OCc3ccccc3)cc2O)cc1,inconclusive: -47.8%
4,CC1CCc2[nH]c3ccc(C(=O)N4CCCC(C(F)(F)F)C4)cc3c2C1 (stereo unspecified),active: -62.4%
5,Cc1cccc(CN2CCc3c([nH]c4ccccc34)C2CC(C)C)n1 (stereo unspecified),inconclusive: -38.8%
6,COc1ccc(OC)c(-c2csc(CCn3nc(C)cc3C)n2)c1,inactive: -8.82%
7,C/C=C(\C)C(=O)NCCN1C2=NC[C@H](Cc3ccccc3)N2C[C@H]1Cc1ccc(O)cc1,inactive: -17.7%
8,Cc1cccc(C)c1OCC(=O)N(Cc1ccc(Cl)cc1)C1CCS(=O)(=O)C1 (stereo unspecified),inconclusive: -31%
9,COc1ccc(OC)c(-c2csc(N(Cc3ccco3)C(=O)c3ccco3)n2)c1,inactive: 5.32%
10,COc1cccc(C=Nc2cc(C(C)C)c(O)cc2C)c1O,inconclusive: -33.5%
11,CCC/C(O)=C1\C(=O)CC(C)(C)CC1=Nc1ccccc1O,inactive: 6.74%
12,Cc1cc(Oc2ncccc2[N+](=O)[O-])c2cc(Cl)ccc2n1,inconclusive: -41.4%
13,O=C(/C=C/c1ccc(Cl)cc1)c1cccnc1,inconclusive: -46.3%
14,CN(C)S(=O)(=O)c1ccc(C(=O)Nc2nc(-c3cc4ccccc4o3)cs2)cc1,inactive: -1.19%
15,CCN(CC)CCCN(Cc1cc2cc3c(cc2[nH]c1=O)OCO3)C(=S)Nc1ccccc1OC,inactive: -29.4%
16,COc1ccc(C(=O)N(C)CCCC2CCCC2)cc1OC1CCN(C(C)C)CC1,inconclusive: -42.7%
17,CC(C)c1nc2sc3c(NCc4ccccc4)ncnc3c2c2c1COC(C)(C)C2,inconclusive: -34.7%
18,CCN1CCc2c(sc(NC(=O)c3ccc(S(=O)(=O)N(CC)c4ccccc4)cc3)c2C(N)=O)C1,active: -95.8%
